Read counts are not given, so values of variants with three or more changes are uncertain.
B1: LINE1-mini (parent)
chain: GGCAGAGCUCAACACAGCGUGGCAAAGUGGCUGUGGCUAGACUGCC

Variants of: B1
Test: self-cleavage, relative activity (ratio to wild type); higher = more cleavage; in vitro, sequencing; the parent is a self-cleaving ribozyme

Row | Variant | self-cleavage
1 | GGCAGAGGUCAACAAAGCGUGGCAAAGUGGCUGCGGCUAGACUUCC | 0.05
2 | GGCAGAGCUCAACACAGAGUGGCAAAAUGUCUGUGGCUAGACUGCC | 0.41
3 | GGCAGAGCUCAACACAGAGUGGUAAAGUGGAUGUGGCUAGACUCCC | 0.05
4 | GGCAGAGCUCAAUACAGCGUGGGUAAGUGGCUGUGGCUAGCCUGCC | 0.02
5 | GGUAGAGCUCAACGCAGCGUGGCAGAGUGGCUGUGGCUAGACUGCC | 0.07
6 | GGCAGACCUCAACACAGCGUGGCAAAGUGGCUGUGGCUACACUGCU | 0.06
7 | GGCAGAGCUUAACACAGCGUGGCAAAGUGGCUUCGGCUAGACUGCC | 0.04
8 | GGCAGAGCGCAACACAGAGUGGCAAAGUGGCUGAGGCUAGACUCCC | 0.04
9 | GGCAGAGACCAACACCGCGUGGAAAAGUGGCUGUGGCUAGACUGCC | 0.29
10 | GGCAGAGCUCAACACAGCGUGGCAAAGUGGUUGUAGGUACACUGCC | 0.02
11 | GGCAGAGCUCAACACAUCGUGGCAAAGGGGCUGCGGCUAGGCUGCC | 0.05
12 | GGCAGCGCUCAACGCAGCGUAGCAAAGUGGCUGUGGCUAGACUUCC | 0.1
13 | GGCGGAGCUCAUCACAGCGUGGCAAAGUGGCUGUGGCUAGGCUGCC | 0.14
14 | GGCUGAGCUCAACCCAGCGUGGCAAAGUGGCUGUGGUUAGACUGCC | 0.06
15 | GGCAGCGCUCAACACUGCGUGGCAAAGUGGCUGUGGCUAGACUGCU | 0.07
16 | GGCAGAGCUUAACAGGGCUUGGCAAAGUGGCUGUGGCGAGACUGCC | 0.03
17 | GGAAGAGCUAAACACAGCGUGGCAAAGUGGCUAUGGCCUGACUGCC | 0.04
18 | GGCAGAGCUCUACACAGCGUGGCAAAGUGGCUUUGGCUACACUACC | 0.01
19 | GGCAAAGCUCGACACAGUGUGGCAAAGUGGCUGUGGCUAAACUGCC | 0.02

Row | Variant | self-cleavage
20 | GGCAGUGCUCAACACAGCGUGGCAAAGUGGCUGUGGUUACACUGCC | 0.1
21 | GACAGAGGUCAACACAGCGUGGCAAAGUGGCUGUGGCUAGAGAGCC | 0.13
22 | GGCACGGCGCAACACUGCGUAGCAAAGUGGUUGUGGAUAGACUGCC | 0.04
23 | CGCAGAGCUCAACACAGCGUGGUAAAGUGGCUGUGGCUUGACUGCC | 0.03
24 | GGCAGAGCUAACCACAGCGUGGCAGAGUGGCUGUGGCUAGACUGCA | 0.02
25 | GGCAGAGCUCAACACAGCGUGGUAAAGUGGUUGUGGCUAGAAUGCC | 0.04
26 | GGCAGAGCUCAUCACAGCCUCGCAAAGUGUGCGUGGCUGGACUGCU | 0.01
27 | GAAAUAGCUGAACACAGCGUGCCGAAGUGGCUGUGGCUAGACUGCC | 0.02
28 | GGAUAAGCUAAACACAUCGUGGCAAAGUCGCUGUGGCUAGACUGCC | 0.04
29 | CGCAGAGCUCAACAUAGCGUGGCAAAGUGGCUGUUUCUAGACUGCU | 0.02
30 | GGCAGAUCUCGACACAGCGUCGCAAAGUGUCUGUUGCUAUACUGAC | 0
31 | GGCACAGCUUAACACAGGGUGGCAAAAUGGCUGUGGCUAGACUGCC | 0.02
32 | GGCAGAGCUCAACGCAGUUUGGCAAAGUGGCUGUGGCUAGACUGCA | 0.19
33 | UGCAGAGCUCAACACAGCAUGGCAAAGUGGCGGGGCCUAGACUGCC | 0.01
34 | CGCAGAGCUCAGCACACCGUGGAAAAGUGGCUGUGGCUAGACUGGC | 0.18
35 | GGCAGAGCUCUACACAUCGUGGCAAAGUGGCUGUGGCUAGACUUUG | 0
36 | GGCAGAGCUCAACACAGCGUGGGAAAGUGGCUGUGGCUAUACUUCC | 0
37 | GGCAGAGCUUAACACAGCGUGGCAAAGUUGGUGUGGCUAGACUGCC | 0.01
38 | GGCAGAGCUCAACACAACGUGGCAAAGUGGAUGGGGCUAGACUGCC | 0

Row | Variant | self-cleavage
39 | GGCAGAGCUCAAGACAGCGGGGCGAAGUGGCUGUAGCUAGAUUGCC | 0.05
40 | GGCAGAGCUUCACACAGCUUGGCAAAGUGGCUGUGGCUAGACUGCC | 0.03
41 | GGCAGAGCUCAACACAGGGUGGCAAUGUGGCUGUGGCUAUACUGCC | 0.06
42 | GGCACACCUCAACACAGCGUGGCAAUGUGGCUGUGGCUAGACUGGC | 0.11
43 | GGCAGAGCUCAAUACAGCGUGGCCAAGCCGCUGUGGAAAGACUCCA | 0.02
44 | GGCAGAGCUCAACACAGGGUGGCAAAGAGGCUGUGGCUAGACUGCG | 0.87
45 | GGCAGACCUCAACACAGCGUGGUAAAGUGGCUGUGGUUAGACUGCC | 0.05
46 | GGCAGAGCUCAACACAGCGUGGCAAAGUCGCUGUGGCCAGGAUGCC | 0.01
47 | GUCAGAGCUCAACACAGUGUGGCAAAGUGGCUGUGGCUAGACUCCC | 0.08
48 | UGCAGAGCUCAACACAGCGUGGCAAAGUGGCUUUGGCUACCCUGCC | 0.01
49 | GGCAUAGCUCAAUACAGCGUGGCAAAGUGGCUAUAGCGAGACUGCC | 0.05
50 | GGCAGAGCUCAACACAGCGUGGCAAAGUGACUUUGGCUAGACUUCC | 0.39
51 | GGCAGAGCUCAACACUGCUUGGCAAAGUGGCUGUGGCUAGACUAUU | 0.04
52 | GGCACAGCUCAACACAGCGUGGCAAAAUGCCUUUGGCUAGACUGCC | 0.06
53 | GGCAGAGCUCGGCACAGCGUGGCAAAGUGUCUGUGGCUAGACUGCC | 0.02
54 | GGGAGAGCUCAACCCAGCGUGGCACAGUGGCUGUGGCUAGACUGCC | 0.09
55 | GGCAGAGCGCAACACAGCGUGGCAAACUGGCUGUGGCUACACUGCC | 0.04
56 | GGCAGAGCUCUACACAGCGUGGCAAAGUGGCUGUGGCUAUACUGAC | 0.01

Reference: the RNAGym collection of RNA variant scans (doi:10.7554/elife.90254)
